According to paper PMC4336329 (PLoS ONE, 2015):
Among all 310,000 compounds or so, about 2,200 (0.71%) showed an effect of 50% or more. Effects have a minus sign here. The list shows a part of the results.

biological target: human ether-à-go-go-related gene (hERG) potassium channel (human, UniProt Q12809); test: primary screen, population patch clamp on CHO cells stably expressing hERG
Sequence (Q12809 whole entry, looked up): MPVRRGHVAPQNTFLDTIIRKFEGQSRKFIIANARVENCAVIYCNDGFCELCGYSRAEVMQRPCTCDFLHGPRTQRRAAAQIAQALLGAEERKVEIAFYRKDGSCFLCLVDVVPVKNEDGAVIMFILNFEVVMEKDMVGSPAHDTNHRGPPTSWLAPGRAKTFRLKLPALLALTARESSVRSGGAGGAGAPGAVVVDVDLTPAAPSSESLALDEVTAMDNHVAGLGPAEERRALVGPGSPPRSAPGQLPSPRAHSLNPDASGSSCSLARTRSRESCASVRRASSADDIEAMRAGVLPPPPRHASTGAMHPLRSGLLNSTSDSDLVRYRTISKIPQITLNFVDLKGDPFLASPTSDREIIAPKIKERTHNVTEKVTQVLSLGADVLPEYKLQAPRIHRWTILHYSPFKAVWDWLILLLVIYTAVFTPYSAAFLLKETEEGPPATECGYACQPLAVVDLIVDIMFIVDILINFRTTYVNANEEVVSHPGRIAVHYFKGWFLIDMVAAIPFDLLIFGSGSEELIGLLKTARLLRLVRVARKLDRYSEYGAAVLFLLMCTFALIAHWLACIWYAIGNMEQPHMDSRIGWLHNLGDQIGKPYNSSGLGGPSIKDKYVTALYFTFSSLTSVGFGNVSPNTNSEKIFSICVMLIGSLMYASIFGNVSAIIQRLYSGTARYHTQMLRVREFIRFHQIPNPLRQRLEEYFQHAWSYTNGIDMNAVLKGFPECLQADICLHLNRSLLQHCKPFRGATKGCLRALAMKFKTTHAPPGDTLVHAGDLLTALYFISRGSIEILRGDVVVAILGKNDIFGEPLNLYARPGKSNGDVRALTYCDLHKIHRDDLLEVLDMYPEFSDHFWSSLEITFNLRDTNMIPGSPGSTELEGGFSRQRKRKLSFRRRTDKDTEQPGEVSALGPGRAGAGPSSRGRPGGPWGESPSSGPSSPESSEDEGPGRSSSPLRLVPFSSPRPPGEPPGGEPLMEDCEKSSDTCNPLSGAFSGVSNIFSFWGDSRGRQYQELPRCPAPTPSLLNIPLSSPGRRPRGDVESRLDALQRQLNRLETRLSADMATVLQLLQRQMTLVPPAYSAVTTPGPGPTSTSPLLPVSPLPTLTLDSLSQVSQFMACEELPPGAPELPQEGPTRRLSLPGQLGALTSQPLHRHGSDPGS

Row | SMILES | hERG current change (%, negative = inhibition) at 1uM [%]
1 | O=C(Nc1ccc(S(=O)(=O)N2CCOCC2)cc1)c1ccccc1F | 14.1
2 | Cc1cccc(C)c1NC(=O)CSCC(=O)c1ccc(O)c(O)c1 | 7.69
3 | Cc1ccc(CS(=O)(=O)CCC(=O)N2CCOCC2)cc1 | 14.5
4 | Cc1noc(C)c1S(=O)(=O)N(CC(=O)NCc1ccc(Cl)cc1)c1ccc2c(c1)OCO2 | -13.9
5 | CC1=NN(C(N)=S)C(=O)C1N=Nc1cccc(C)c1 (centres unmarked) | 6.89
6 | COCCCn1c(SCC(=O)n2c(C)c(C)c3ccccc32)nnc1-c1ccoc1C | 7.76
7 | O=S(=O)(NCc1cccs1)c1ccc(Br)s1 | 8.54
8 | Cn1cc(/C=C2\SC(=O)N(c3ccc(O)cc3)C2=O)c2ccccc21 | 8.17
9 | COc1ccc(S(=O)(=O)Cc2ccc(C(=O)N3CCN(Cc4ccccc4)CC3)o2)cc1 | -13.2
10 | CN(C)S(=O)(=O)c1cccc(NC(=O)Cn2cnc3ccccc3c2=O)c1 | 14.3
11 | CN(C)S(=O)(=O)c1cccc(C(=O)Nc2ccccc2Cl)c1 | 1.91
12 | COc1cccc(CNc2ccc(S(N)(=O)=O)cc2)c1OCc1ccccc1F | 15.3
13 | O=[N+]([O-])c1ccc(N/N=C/c2cn(-c3ccccc3)nc2-c2ccccc2)cc1 | 15.4
14 | CC(=O)c1ccc2cccc3c2c1N=CN3C | 9.04
15 | Nc1ccc2c(c1)sc1ccccc12 | -1.2
16 | Cc1ccc(-c2n[nH]c3c2CCC3)cc1 | 6.85
17 | CS(=O)(=O)O.Nc1ncnc2c1ncn2C1CCCC1 | -1.9
18 | O=C(NC1CCN(C(=S)NCCc2ccccc2)CC1)C1CCCCC1 | 9.36
19 | Cn1c(SCC(=O)NCc2ccc(F)cc2)ncc(C(=O)Nc2ccccc2)c1=O | 5.88
20 | C/C(=N\N=C\c1ccccc1)c1nnn(-c2nonc2N)c1C | 12.4
21 | CCCC(=O)NCC(c1cccs1)S(=O)(=O)c1ccc(C)cc1 (centres unmarked) | 14.6
22 | CCOC(=O)CC/C(C)=N\N=C1\SC(CC(=O)O)C(=O)N1c1ccccc1 (centres unmarked) | 9.29

Row | SMILES | hERG current change (%, negative = inhibition) at 1uM [%]
23 | Cc1c(Cl)cccc1NC(=O)[C@@]1(CC(=O)O)CC(/C=C/c2ccccc2)=NO1 | 14.3
24 | CC(=O)c1cccc(NC(=O)C(OC(=O)/C=C/c2ccc3c(c2)OCO3)c2ccccc2)c1 (centres unmarked) | 1.74
25 | O=c1ccc2cc(S(=O)(=O)NCc3ccccc3)ccc2[nH]1 | 13.6
26 | Cc1ccc(-c2cn3cc([N+](=O)[O-])ccc3n2)cc1 | 1.75
27 | Cc1cc(Br)ccc1NC(=O)CN(C)C(=O)c1ccc2ccccc2n1 | 0.389
28 | CC1CCCC(C)N1C(=O)COC(=O)c1ccc[nH]c1=O (centres unmarked) | 5.03
29 | S=c1[nH]nc(C2CCCCC2)n1Cc1ccccc1 | -6.41
30 | c1cc2nnnn2nc1N1CCCCC1 | 10.1
31 | COc1ccc(S(=O)(=O)N2CCC(C(=O)N3CCCCCC3)CC2)cc1 | 5.86
32 | COc1cc(/C=C/C(=O)O)cc(S(=O)(=O)Nc2cccc(SC)c2)c1OC | 21
33 | CCCCNS(=O)(=O)c1ccc(S(=O)(=O)NCc2ccncc2)cc1 | 4.17
34 | Cc1noc(C)c1COc1cccc(C(=O)OCCOc2ccc(F)cc2)c1 | 12.5
35 | O=C(CNC(=O)c1ccccc1)NCC(=O)OCC(=O)c1ccc([N+](=O)[O-])cc1 | 6.84
36 | Cc1ccccc1-n1c(-c2ccco2)n[nH]c1=S | 15.6
37 | CC1(C)CN(c2ccc(C(=O)c3ccccc3)cc2)C1=O | 6.95
38 | Cc1cc(C)cc(NC(=O)COC(=O)c2cc(C)oc2C)c1 | 2.35
39 | O=C(Nc1ccccc1F)C(c1ccccc1)c1ccccc1 | 14.3
40 | Cc1nnc(SCC(=O)Nc2ccc(S(=O)(=O)N3CCCC3)cc2)n1N | 13.1
41 | Br.CN(CC(O)C[NH+]1CCOCC1)S(=O)(=O)[O-] (centres unmarked) | 17
42 | COc1ccc(-n2c(C)cc(SC)c(C(C)=O)c2=S)cc1 | -3.9
43 | Cc1ccc(NC(=O)C2CCN(c3ncnc4c3nc3n4CCCCC3)CC2)cc1Cl | 3.62
44 | O=C1C(Cc2c[nH]c3ccccc23)NC(=S)N1Cc1ccccc1 (centres unmarked) | -14.4
